Reference: PubChem BioAssay AID760 (NMMLSC, 2007)
Among all 190,000 compounds or so, about 360 (0.19%) were called active. This list was built around the results that the source calls inconclusive (neither active nor inactive); the mix of calls is not that of the screen.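 The calls were made as follows: active = GTP binding activity at least 20 points away from 100%, either lowered or raised; inconclusive = signal likely due to the compound's own green fluorescence; inactive = the rest.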

target: Ras-related protein Rab-2A (Canis lupus familiaris) (UniProt P61105); assay: Rab2 wt fluorescent GTP binding changes, either direction – biochemical, dog, bead-based flow cytometry, multiplex, primary screen (AID 760); conditions: GST-Rab2 wt beads, Bodipy-GTP binding, at 10 µM;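 also: 0% = beads with excess unlabeled GTP and 100% = no-compound control corrected for plate trend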

GTP binding activity, active:
Cc1ccc2c(c1)c1nnc(SCC(=O)N3CCCc4ccccc43)nc1n2CC(=O)O 66%
CCOc1ccc2nc(SCc3ccc(CC(=O)O)cc3)c(C#N)cc2c1 74%
O=C(O)/C=C/c1cn(Cc2ccccc2)nc1-c1cccs1 127% [activator]
O=C(COc1ccccc1-c1ccccc1)N/N=C/c1ccncc1 61%

GTP binding activity, inactive:
NS(=O)(=O)c1ccc(CCN2C(=O)/C(=C\c3ccc(Cl)cc3)SC2=S)cc1 82%
Cc1nn(C)c(C)c1S(=O)(=O)N(CC(=O)NCc1cccs1)c1ccc(C(C)C)cc1 98%
O=C(NCCCN1CCOCC1)c1sc2ccccc2c1Cl 100%
Cc1cc(N)nc2nc(C(F)(F)F)nn12 97%
NS(=O)(=O)c1cccc(NS(=O)(=O)c2ccc(/C=C/C(=O)OCC(=O)c3ccccc3)cc2)c1 97%
Cc1[nH]c(=S)c(C#N)c(-c2ccco2)c1C(=O)N(C)C 97%
O=C(Nc1cccc(O)c1)c1ccccc1 104%
COC(=O)c1ccc(C2OCC(C)(C)CO2)cc1 102%
Cc1ccc(S(=O)(=O)N(C)CCCC(=O)Nc2cc(C)ccc2C)cc1 103%
CS(=O)(=O)N1CCN(c2ccc(Cl)cc2[N+](=O)[O-])CC1 100%
O=C(N/N=C(\Cc1ncc[nH]1)c1ccccc1)c1cccnc1 97%
CCOc1ccc(-c2nn(-c3ccccc3)cc2/C=C(\C#N)S(=O)(=O)c2ccccc2)cc1C 106%
CCOC(=O)c1ccc(NC(=S)NCCc2ccc(F)cc2)cc1 98%
COCC(C)NC(=O)CSc1nc(-c2ccccc2)c(-c2ccccc2)o1 (stereo not drawn) 96%
Cc1ncsc1C(=O)O 96%
CC(=O)Nc1ccc(N2C(=O)c3ccc(C(=O)Nc4nnc(SCc5ccc(F)cc5)s4)cc3C2=O)cc1 97%
Clc1ccc(-n2cc(COCc3ccccc3)nn2)cc1 93%
CCOc1ccccc1CN1CCN(C2CCSCC2)CC1CCO (stereo not drawn) 98%
COc1ccc2nc(NNC(=O)c3cc(=O)c4ccccc4o3)sc2c1 87%
CCOc1ccc(Br)cc1S(=O)(=O)NC(=O)c1ccccc1 96%
O=C(CN1CCCCCC1)N/N=C/c1cccc(Cl)c1Cl 101%
Cc1ccc(CSCC(N)C(=O)O)cc1 (stereo not drawn) 97%
FC(F)(F)c1cc(-c2cccs2)nc2nc(N3CCOCC3)sc12 97%
C#CCNC(=O)C1=C[C@@H](C2CCCCC2)C[C@@H](OCCCCO)O1 98%
COc1ccccc1/C=C/C=N/NC(=O)c1ccc2nc[nH]c2c1 99%
CC(=O)Nc1ccc(NC(=O)C(OC(=O)c2ccccc2)C(OC(=O)c2ccccc2)C(=O)O)cc1 (stereo not drawn) 95%
CCOC(=O)C1(Cc2cccc(OC)c2)CCN(Cc2ccc(C)s2)CC1 96%
O=C(Nc1cc2cc([N+](=O)[O-])ccc2oc1=O)c1cccs1 94%

GTP binding activity, inconclusive:
COC(=O)c1sc2ncccc2c1OCc1ccc(Cl)cc1Cl 91%
O=C(Cn1cnc2ccccc2c1=O)c1c[nH]c2ccccc12 101%
CSc1nc(C)c2cc(C)oc2n1 98%
O=C(Cn1c(=O)n(CC(=O)NCc2ccccc2)c2ccccc21)NCc1ccccc1 104%
c1coc(-c2nnc3sc(Cc4cccs4)nn23)c1 89%
C/C=C/C=N/Nc1nc(C)cc(=O)[nH]1 96%
CCN(C(=O)Cn1c(=O)oc2ccccc21)c1cccc(C(F)(F)F)c1 107%
Cc1ccccc1NC(=O)Cn1nc(-c2ccccc2)nc1-c1ccccc1 105%
COc1ccc(NC(=O)c2cc(-c3ccccc3)oc2C)cc1 92%
CCCCN(C)C1=CC2=CC(=C(C#N)C#N)CCC2CC1 (stereo not drawn) 122%
CCC(C)Nc1nc(OCC(F)(F)F)nc(OCC(F)(F)F)n1 (stereo not drawn) 106%
COC(=O)c1ccccc1NC(=S)NC(NC(=O)COc1ccccc1)C(Cl)(Cl)Cl (stereo not drawn) 106%
Cn1nc(C(=O)Nc2nnc(C3CC3)s2)c2ccccc2c1=O 89%
CCOC(=O)c1[nH]c(C)c(CN(CCc2ccc(OC)c(OC)c2)C(=O)CCCC(=O)O)c1C 104%
CCOC(=O)CN(C(=O)CSc1nnc2c(n1)[nH]c1ccc(F)cc12)c1ccccc1 89%
CS(=O)(=O)N1CCC(C(=O)O)CC1 107%
Clc1ccccc1-c1ccc(CN2CCN(c3ccccc3)CC2)o1 92%
Cc1ccc(S(=O)(=O)c2c(N)n(CCCO)c3nc4ccccc4nc23)cc1 86%
CCOC(=O)Nc1nnc(-c2cccc(OC)c2)s1 102%
Cc1ccc(NCc2nnc(SC(C)C(=O)N/N=C/c3ccc(C)o3)n2-c2ccccc2)cc1 (stereo not drawn) 99%
O=C1CC(N2CCOCC2)C(=O)N1CCc1ccccc1 (stereo not drawn) 104%
COc1ccc(CCNC(=O)CSc2nc3[nH]ncc3c(=O)n2-c2ccccc2OC)cc1OC 93%
Cc1c(C(=O)N2CCOCC2)[nH]c2c1C(=O)CC(c1ccccc1Cl)C2 (stereo not drawn) 91%
O=C(O)c1ccc(N2C(=O)CC(SC(=NCc3ccc4c(c3)OCO4)Nc3ccc(F)cc3)C2=O)cc1 (stereo not drawn) 89%
C=CCn1c(-c2cccs2)nc2nc3ccccc3nc21 93%
CCOC(=O)C1CCN(C(=O)CCc2ccccc2)CC1 100%
CC(=O)NCC1CCCN(c2nc3nonc3nc2N(C)Cc2ccccc2)C1 (stereo not drawn) 96%
COc1ccc(N(C(=O)c2ccc(F)cc2)C2=CC3CCC(C2)N3C)cc1 (stereo not drawn) 105%
Cc1nn(-c2ccccc2)c(C)c1C(=O)OCC(=O)N(C)C1CCS(=O)(=O)C1 (stereo not drawn) 95%
O=C(CCC(=O)Nc1ccc(F)cc1)N/N=C/c1c[nH]c2ccccc12 93%
Cc1cccc(C)c1NC(=O)CSc1ccc([N+](=O)[O-])cn1 182%
Cc1cc(C(F)(F)F)nn1Cc1n[nH]c(=S)n1-c1cccc(Cl)c1 91%
Cc1ccc(C2NC(=S)NC3=C2N2CCC3CC2)cc1 (stereo not drawn) 110%
O=c1[nH]c(=O)c2ncc(-c3ccc(Cl)cc3)nc2[nH]1 95%
CC(=O)Oc1ccc2c(c1)Oc1cc(OC(C)=O)ccc1C21OC(=O)c2ccccc21 670%
Cc1c(/C=C/C(=O)c2ccc(C(C)C)cc2)cnn1C 93%
CCOC(=O)C1CCN(CCC(=O)Nc2cccc(Cl)c2)CC1 102%
CCSc1ccc2nnc(-c3cccs3)n2n1 86%
Cc1ccc(N2CC(C(=O)Nc3ccccn3)CC2=O)cc1 (stereo not drawn) 103%
CCOC(=O)c1cccc(NC(=O)CCn2nnc3ccccc32)c1 102%
O=C(NCc1ccco1)c1ccc(-c2ccccc2Cl)o1 87%
CCC(c1nnnn1CS(=O)(=O)c1ccc(C)cc1)N1CCN(c2nc3ccccc3s2)CC1 (stereo not drawn) 101%
COCCCN1CN(S(=O)(=O)c2ccc(Cl)cc2)c2nc3ccccc3nc21 104%
N#C/C(=C/c1ccc(N2CCCCC2)o1)C(=O)Nc1ccc2ccccc2c1 192%
Cc1ccc2c(c1)SC1=NC(c3ccccc3)(C(F)(F)F)NC(=O)N12 (stereo not drawn) 91%
COC(=O)c1ccc(C2C(Oc3ccc(OC)cc3)C(=O)N2CCc2ccc(OC)c(OC)c2)cc1 (stereo not drawn) 101%
CC1CCN(S(=O)(=O)N2CCC(C(=O)NCCN3CCOCC3)CC2)CC1 91%
CCOCCc1nnc(NC(=O)c2cccc(F)c2)s1 104%
CCN(CC)S(=O)(=O)c1ccc(C(=O)NC(C)(C)C)cc1 95%
CCOC(=O)c1sc(Nc2nc3c(OC)cccc3s2)nc1C 82%
Cc1ccc(C)c(NS(=O)(=O)c2cc(C(=O)Nc3ccccc3-c3ccccc3)ccc2C)c1 103%
CCn1cc(C2=NOC(C(=O)Nc3cccc(C(C)=O)c3)C2)c(C)n1 (stereo not drawn) 105%
COc1cc(N2CCCC2)c(OC)cc1/C=C(/C#N)c1ccc(Br)cc1 184%
CCOC(=O)C1CCCN(C(=O)c2cc3cc(Br)ccc3oc2=O)C1 (stereo not drawn) 97%
CCN(CC(=O)Nc1sc2c(c1C#N)CCCC2)CC(=O)NC1CCS(=O)(=O)C1 (stereo not drawn) 91%
Cc1cccc(S(=O)(=O)Nc2ccc(-c3cn4ccccc4n3)cc2)c1 92%
CCOC(=O)C1CCN(CCC(=O)Nc2cccc(C)c2)CC1 95%
c1ccc(-c2nnc(OCc3cccnc3)c3ccccc23)cc1 94%
CC(=O)[C@@H]1[C@@H]2C(=O)N(C3CCCCC3)C(=O)[C@@H]2C2c3ccccc3C=CN21 (stereo partly drawn) 108%
COc1cccc(-n2nnc3c(=O)n(Cc4ccc(C)cc4)cnc32)c1 93%
CO/N=C(/CS(=O)(=O)Cc1ccccc1Cl)c1ccc(Cl)cc1Cl 103%
